Measurements published in PubChem BioAssay AID686979 (National Center for Advancing Translational Sciences (NCATS), 2013).
Values joined by “and” are separate entries in the source; they are usually repeats but may differ in a detail not shown here. Equal values may be shown once. Among all 420,000 compounds or so, about 50,000 (12%) were called active. Inconclusive results (about 26%) are left out. Calls follow the shape of the dose curve; as a rule, active = well fitted inhibition curve with a large enough effect; inconclusive = small, poorly fitted or top-dose-only effect; inactive = flat fitted curve, though single readings scatter. This is a selection; strong and weak results do not stand in their true shares. Some structures have more than one record in an assay (separate samples or runs), and their calls can disagree.

Test: qHTS for Inhibitors of human tyrosyl-DNA phosphodiesterase 1 (TDP1): qHTS in cells in presence of CPT; also: nearly all actives have a fitted effect of over 55% in size
Settings: chicken DT40 Tdp1-/-;hTDP1 cells + 20 nM CPT, ATP luminescence, 48 h; series mostly up to 46.2 µM; activity change, negative = growth inhibition: at the top concentration
Method in brief: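 Chicken DT40 Tdp1-/- cells complemented with human TDP1, 400 cells/well, exposed to compounds plus 20 nM camptothecin for at least 48 h at 37 C; viability read as ATP content by CellTiter-Glo luminescence.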
% is scaled to controls: 0 for no effect and ±100 for the full control effect; potency is read from the fitted curve at half-maximal effect.

SMILES	activity change, negative = growth inhibition	Potency
N#CC1=C2SCN(c3ccccc3)CN2C(=O)CC1c1ccccc1Cl (stereo unspecified)	inactive: -16.4%	
O=C(O)CC(NC(=O)C12CC3CC(CC(C3)C1)C2)c1cccc(Cl)c1 (stereo unspecified)	inactive: 0.315%	
CC(C)(C(=O)O)c1ccc([C@H](O)CCCN2CCC(C(O)(c3ccccc3)c3ccccc3)CC2)cc1	inactive: -0.0014%	
Cc1ccc(CNC(=O)CCCn2nc(C)c3c(C)n(-c4ccccc4)nc3c2=O)cc1	inactive: -29.3%	
Cc1cccc(NS(=O)(=O)c2coc(C(N)=O)c2)c1C	inactive: 31.6%	
Cc1ccc(C2=NN(C(=O)c3ccccc3F)C(c3ccccc3F)C2)cc1 (stereo unspecified)		active: 20.6 µM
Cc1ccsc1C(=CCCN1CCC[C@@H](C(=O)O)C1)c1sccc1C	inactive: -9.29%	
COc1ccc(/C=N/NC(=S)NCC2CCCO2)cc1 (stereo unspecified)	inactive: 2.54%	
Cc1cccc(NS(=O)(=O)c2cc(C(=O)N3CCCC3)ccc2Cl)c1	inactive: -3.97%	
COC(OC)c1ccnc(-c2ccc(OC(=O)c3ccccc3)cc2)n1	inactive: 41.5%	
c1cn(CC2(Cn3ccnc3)COC2)cn1	inactive: 0.124%	
c1csc(-c2csc3nc(CN4CCOCC4)nc(NCc4ccc5c(c4)OCO5)c23)c1		active: 23.1 µM
CCCN1C2CCCC1CC(NC(=O)NC1CCCCC1)C2 (stereo unspecified)	inactive: 35.8%	
CCCCc1nc(Cl)c(CO)n1Cc1ccc(-c2ccccc2-c2nnn[nH]2)cc1	inactive: 18.1%	
Nc1nonc1C(=O)OCC(=O)N1CCCCC1	inactive: 30.1%	
C=CCc1ccccc1OCC(O)CN1CCN(Cc2ccc3c(c2)OCO3)CC1 (stereo unspecified)	inactive: -22.1%	
Cn1c(=O)[nH]c(=O)c2c1nc(N1CCCCC1)n2CCCSc1nc2ccccc2s1		active: 13 µM
COc1cccc(NC(=O)CSc2nc3ccccc3n2C)c1	inactive: -23.1%	
CSCCC(NC(=O)c1ccc(Cl)cc1)C(=O)OCC(C)=O (stereo unspecified)	inactive: 34.2%	
O=C(NNC(=O)C1CC=CCC1)c1ccccc1Br (stereo unspecified)	inactive: 34.7%	
COc1ccccc1NC(=S)N1CCN(c2nc(-c3ccccc3)cs2)CC1		active: 18.4 µM
CC1OC(CC(=O)O)CC2=C1C(=O)c1c(O)cccc1C2=O (stereo unspecified)		active: 0.103 µM
Cc1nn(C)c(Cl)c1C(=O)NCC(=O)O	inactive: 42.3%	
CCOC(=O)/C=c1/s/c(=C/c2ccc3cc(OC)ccc3c2)c(=O)n1CC(=O)NCC1CCCO1 (stereo unspecified)		active: 16.4 µM

SMILES	activity change, negative = growth inhibition	Potency
OCC[C@H]1C[C@H](O)[C@@H](O)[C@]2(OCCc3ccccc32)O1	inactive: -1.6%	
COc1ccc(-n2nc(C(=O)NCC(=O)NCCC3=CCCCC3)c3ccccc3c2=O)c(OC)c1	inactive: 3.55%	
COc1ccccc1NC(=O)C(C/C=C(\C)Cl)C(C)=O (stereo unspecified)	inactive: 6.38%	
O=C(NCCc1ccccc1)c1ccc(CS(=O)(=O)c2ccc(Br)cc2)o1	inactive: -21.4%	
Cc1c(CC(=O)NCCC(=O)O)c(=O)oc2cc3occ(-c4ccccc4)c3cc12	inactive: 59.1%	
CC1(C(=O)OCC(=O)Nc2ccccc2Cl)CC1(Cl)Cl (stereo unspecified)	inactive: 39%	
COc1ccc(NC(=O)COc2ccc(-c3nn(C)c(=O)c4ccccc34)cc2)cc1	inactive: -8.62%	
OC1COC(OCc2ccccc2)C(O)C1O (stereo unspecified)	inactive: 36.9%	
CCOc1ccccc1NC(=O)CSc1ccc(-c2sc(C)nc2C)nn1		active: 20.6 µM
O=C(Nc1ccc2c(c1)OCCO2)C1CCCN(S(=O)(=O)c2cccs2)C1 (stereo unspecified)		active: 13 µM
COc1ccc(CCNC(=O)CSc2cc(=O)[nH]c(N)n2)cc1OC	inactive: 34.3%	
CC(C)CCNC(=O)CN1N=C(c2ccc(Cl)cc2)CCC1=O	inactive: -0.887%	
COc1ccc(C2CC(=O)c3c(O)cc(OC4OC(COC5OC(C)C(O)C(O)C5O)C(O)C(O)C4O)cc3O2)cc1O (stereo unspecified)	inactive: 20.6%	
Cc1ccc(-c2cc(C(=O)Nc3ccc(S(=O)(=O)Nc4onc(C)c4C)cc3)c3ccccc3n2)cc1	inactive: 16.6%	
CCOC(=O)C1C(c2ccccc2)N(C)OC1(O)C(F)(F)F (stereo unspecified)	inactive: 8.96%	
O=C(NCCc1ccccc1)c1ccc(CSc2nc3ccncc3n2Cc2cccc(F)c2)cc1		active: 13 µM
CCN(CC)C(=O)c1sc2c(c1C)c(=O)n(CCc1ccccc1)c(=O)n2Cc1cccc(Cl)c1		active: 23.1 µM
Cc1ccc(C)c(Nc2nn3c(=O)c4ccc(C(=O)N(C)Cc5ccccc5)cc4nc3s2)c1		active: 9.2 µM
CC(NC(=O)Cc1ccc(F)cc1)c1ccc(F)cc1 (stereo unspecified)	inactive: -20.9%	
CC(C)(C)c1ccc2c(S(=O)(=O)O)c(C(C)(C)C)ccc2c1	inactive: 7.03%	
Cc1cccc(-n2ccnc2SCC(=O)Nc2ccc(F)cc2F)c1C		active: 16.4 µM
O=C1CCC(=O)N1OCCOc1ccccc1	inactive: 32.2%	
CCc1cccc(C)c1NC(=O)c1cc(S(=O)(=O)NCc2ccccc2Cl)ccc1F		active: 20.6 µM
CCOc1ccccc1CNC(=O)CCCn1ncn2c(cc3occc32)c1=O	inactive: -26.7%	

SMILES	activity change, negative = growth inhibition	Potency
CCC1Nc2ncnc(N3CCOCC3)c2N(Cc2ccc(Br)cc2)C1=O (stereo unspecified)	inactive: -14.3%	
COc1ccc(CCCc2nnc(SCC(=O)Nc3cc(C)ccc3C)o2)cc1	inactive: -33.3%	
CC(C)NC(=O)CN(c1cccc([N+](=O)[O-])c1)S(=O)(=O)c1ccccc1	inactive: 34.9%	
NC1CCN(c2nc3c(cc2F)c(=O)c(C(=O)O)cn3-c2ccc(F)cc2F)C1 (stereo unspecified)		active: 11.9 µM and active: 16.4 µM
OCC[C@@H]1C[C@@H](O)[C@H](O)[C@@]2(CCc3ccccc3O2)O1	inactive: 2.2%	
O=C(NC1CCN(CCc2c[nH]c3ccccc23)CC1)c1ccccc1	inactive: -23.1%	
COc1cc(/C=N/Nc2snc(SC)c2C#N)ccc1O		active: 3.98 µM
CCCSc1nsc(NC(=O)C(c2ccccc2)c2ccccc2)n1		active: 18.4 µM
CCC(=O)N1CCc2cc(S(=O)(=O)CCC(=O)N3CCN(c4ccc(Cl)cc4)CC3)ccc21		active: 6.51 µM and active: 8.2 µM
OC[C@@H]1CN(Cc2ccc(-c3ccccc3)cc2)C[C@H](n2cnc3c(N4CCCC4)ncnc32)O1		active: 18.4 µM
O=C(CSCc1ccccc1)NCCc1ccc(F)cc1	inactive: 49.7%	
CCOC(=O)CNC(=O)N1CCC(CCC(=O)N(C)Cc2ccccc2)CC1	inactive: 35.2%	
CC(=O)OCC(=O)[C@@]1(OC(C)=O)[C@@H](C)C[C@H]2[C@@H]3C[C@H](F)C4=CC(=O)C=C[C@]4(C)[C@@]3(F)[C@@H](O)C[C@@]21C	inactive: -29.8%	
Cc1ccccc1S(=O)(=O)Cc1ccc(C(=O)NC2CCC(C)CC2)o1 (stereo unspecified)	inactive: 0.991%	
Cc1c(C(=O)Nc2ccc(S(N)(=O)=O)cc2)oc2ccc(Cl)cc12	inactive: 34.9%	
CCOc1c(C)cc(-c2ncccc2O)cc1C	inactive: -22%	
CCN(CC)C(=O)CSC1=C(C#N)C(c2ccco2)C(C(=O)OCCOC)=C(C)N1 (stereo unspecified)	inactive: 4.96%	
Cc1noc(C)c1CSc1nc2sc3c(c2c(=O)n1C)CCCC3		active: 11.6 µM
C[C@H](CO)N1C[C@H](C)[C@@H](CN(C)S(=O)(=O)c2ccc(Oc3ccccc3)nc2)OCc2cnnn2CCCC1=O	inactive: 3.54%	
N/C(Cc1ccc([N+](=O)[O-])cc1)=N\OC(=O)c1ccc2ccccc2c1		active: 9.2 µM
O=C(Nc1c(-c2ccccc2)nc2ccccn12)c1ccccc1F	inactive: -1.85%	
COc1ccc(Cl)cc1NC(=O)CN(C)C(=O)c1sc2ccccc2c1Cl		active: 16.4 µM
COc1ccc(-n2c(=S)[nH]c3cc(C(=O)NCc4cccnc4)ccc3c2=O)c(OC)c1	inactive: -4.58%	
Cc1ccc(S(=O)(=O)N(CC2CO2)c2ccccc2[N+](=O)[O-])cc1 (stereo unspecified)		active: 11.6 µM

SMILES	activity change, negative = growth inhibition	Potency
CC(=O)c1ccc(NC(=O)Nc2ccc3c(c2)nc(C)n3C)cc1	inactive: 33.9%	
COc1cc2c(cc1OC)C(C(=O)O)C(c1ccc(C)o1)N(C)C2=O (stereo unspecified)	inactive: -5.54%	
CCCCN1CC[C@H]2C=CC[C@@H](C(=O)NCc3ccc(OC)cc3)[C@H]2C1=O	inactive: -17.7%	
C[C@H](CO)N1C[C@H](C)[C@H](CN(C)C(=O)Nc2ccc(N3CCN(C)CC3)cc2)OCc2cnnn2CCCC1=O	inactive: 0.542%	
CC(C)(C)CC(C)(C)c1ccc(O)c(Cc2ccc(Cl)cc2Cl)c1	inactive: -4.94%	
CN(CCCC(=O)Nc1ccncc1)S(=O)(=O)c1ccc(Cl)cc1		active: 16.4 µM
CC1c2ccccc2CN1CC1=NCCN1 (stereo unspecified)	inactive: 4.56%	
Cc1cc(C)cc(SCc2noc(C(=O)NCC3CCCO3)c2C(=O)O)c1 (stereo unspecified)	inactive: 43.4%	
Cc1c(Cl)cnc(NC(=O)COC(=O)C(NC(=O)c2ccco2)C(C)C)c1Cl (stereo unspecified)	inactive: -3.38%	
COc1cccc(OCC(=O)Nc2ccccc2NC(C)=O)c1	inactive: 4.28%	
Nc1ccc(CCNc2ncnc3c2ncn3C2OC(CO)C(O)C2O)cc1 (stereo unspecified)	inactive: 39.6%	
COn1c(-c2ccccc2)nc2ncccc21	inactive: 4.73%	
NC(N)=Nc1nc(CSCC/C(N)=N/S(N)(=O)=O)cs1	inactive: -7.31%	
COC(=O)/C=C1\SC(=NC(=O)c2ccc(OC)cc2)NC1=O	inactive: -27.8%	
O=C(Nc1nnc(S(=O)(=O)N2CCCCCC2)s1)c1ccccc1F	inactive: -21.7%	
COc1ccc([C@@H]2CC(=O)c3c(O)cc(O[C@@H]4OC(CO[C@@H]5OC(C)[C@H](O)[C@H](O)C5O)[C@@H](O)[C@@H](O)C4O)cc3O2)cc1O (stereo partly specified)	inactive: 10.2%	
CC(=O)N1CCCc2ccc(NS(=O)(=O)c3ccc(C)c(C)c3)cc21	inactive: 11.9%	
C[C@@H]1CN([C@H](C)CO)C(=O)CCCn2nncc2CO[C@H]1CN(C)S(=O)(=O)c1ccc(Cl)cc1	inactive: -13.5%	
CCC[C@H]1COCCS(=O)(=O)N1Cc1ccccc1	inactive: -0.574%	
C[C@@H]1CN([C@@H](C)CO)C(=O)c2cc(NC(=O)CCC(F)(F)F)ccc2O[C@H]1CN(C)Cc1ccc(Cl)c(Cl)c1		active: 20.6 µM
CCN(CC)c1ccc(N2C(=O)/C(=C/c3cccs3)SC2=S)cc1	inactive: -28.5%	
CC(C)C(NC(=O)Cc1ccccc1)C(=O)N1CCN(c2cccc(Cl)c2)CC1 (stereo unspecified)		active: 4.61 µM
COC(=O)C(=Cc1ccc(OCc2ccc([N+](=O)[O-])cc2)c(OC)c1)C(=O)OC		active: 9.2 µM
CCOC(=O)c1ccc(-c2ccc3c(=O)c4ccccc4n(C)c3c2)cc1F		active: 14.6 µM
